Results published in article PMC4336329 (PLoS ONE, 2015).
Hit rate of the full screen: of about 310,000 compounds, about 2,200 (0.71%) showed an effect of 50% or more. Effects have a minus sign here. The list shows a part of the results.

molecular target: human ether-à-go-go-related gene (hERG) potassium channel (human, UniProt Q12809); assay: primary screen, population patch clamp on CHO cells stably expressing hERG
Sequence (Q12809 whole entry, looked up): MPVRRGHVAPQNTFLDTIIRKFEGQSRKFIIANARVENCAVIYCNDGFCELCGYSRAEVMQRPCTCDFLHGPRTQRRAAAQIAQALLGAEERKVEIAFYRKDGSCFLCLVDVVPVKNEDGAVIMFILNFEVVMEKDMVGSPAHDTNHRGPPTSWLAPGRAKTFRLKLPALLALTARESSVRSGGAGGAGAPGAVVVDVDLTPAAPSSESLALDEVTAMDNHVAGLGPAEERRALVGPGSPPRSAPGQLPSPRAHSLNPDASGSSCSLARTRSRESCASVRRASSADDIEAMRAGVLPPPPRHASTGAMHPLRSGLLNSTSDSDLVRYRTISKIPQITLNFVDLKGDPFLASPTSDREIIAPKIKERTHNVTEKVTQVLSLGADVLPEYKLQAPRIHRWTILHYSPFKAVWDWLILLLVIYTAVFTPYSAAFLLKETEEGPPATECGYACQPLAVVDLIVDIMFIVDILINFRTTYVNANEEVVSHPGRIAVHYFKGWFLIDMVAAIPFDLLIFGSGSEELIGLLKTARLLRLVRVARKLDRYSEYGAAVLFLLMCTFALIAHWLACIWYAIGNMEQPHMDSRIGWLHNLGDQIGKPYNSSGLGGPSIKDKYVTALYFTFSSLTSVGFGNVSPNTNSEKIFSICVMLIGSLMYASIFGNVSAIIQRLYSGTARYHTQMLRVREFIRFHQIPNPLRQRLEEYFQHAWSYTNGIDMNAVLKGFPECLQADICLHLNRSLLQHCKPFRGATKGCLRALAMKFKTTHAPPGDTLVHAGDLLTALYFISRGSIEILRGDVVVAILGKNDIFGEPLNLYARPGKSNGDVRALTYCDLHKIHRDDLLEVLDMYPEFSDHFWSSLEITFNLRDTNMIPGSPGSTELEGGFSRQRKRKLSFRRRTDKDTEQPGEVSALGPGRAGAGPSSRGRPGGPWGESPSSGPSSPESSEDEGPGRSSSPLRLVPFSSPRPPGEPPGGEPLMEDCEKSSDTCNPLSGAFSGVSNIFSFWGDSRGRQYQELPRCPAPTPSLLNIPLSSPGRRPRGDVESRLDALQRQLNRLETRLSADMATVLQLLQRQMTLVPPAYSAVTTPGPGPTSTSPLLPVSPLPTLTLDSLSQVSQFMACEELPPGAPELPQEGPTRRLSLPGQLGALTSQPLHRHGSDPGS

SMILES	hERG current change (%, negative = inhibition) at 1uM [%]
CNc1nc(OCC#N)nc(N2CCCCC2)n1	9.08
Cl.NC(=O)CSc1nnc([C@@H](N)Cc2c[nH]c3ccccc23)o1	1.81
O=C1N(O)C2(C=CCCC2)/C(=N\O)C12CCCCC2 (centres unmarked)	6.27
Nc1nc(-c2cccnc2)nc(N2CCCCC2)n1	-6.93
C=CCOC(=O)COc1ccc2c(C)c(C)c(=O)oc2c1C	5.32
Cc1nn(C(C)C(=O)N2CCCCC2)c(=O)c2c1sc1ccccc12 (centres unmarked)	23.8
O=C(CCN1C(=O)c2cccc3cccc(c23)C1=O)N1CCN(c2ccccc2F)CC1	5.92
CC(=O)c1ccc(OCC(=O)Nc2ccccc2N2CCCC2)cc1	3.63
Cn1c(/C(C#N)=C2/CCCCCN2)nc2ccccc21	5.61
O=C(NCCc1ccccc1)C1CCCN(c2ncnc3c2nc2n3CCCCC2)C1 (centres unmarked)	-23.8
O=C(Nc1ccc2ccccc2c1)c1cn(-c2ccccc2)nc1-c1cccs1	-1.2
O=C(CN(c1cccc(C(F)(F)F)c1)S(=O)(=O)c1ccccc1)N1CCOCC1	-10.2
CC(=O)c1cc(C#N)c(SCC(=O)C(C)(C)C)nc1C	-13.5
[N-]=[N+]=NCCN1CCC(O)CCC1=O (centres unmarked)	6.59
O=C(NCc1csc2ccccc12)Nc1cc(Cl)cc(Cl)c1	9.05
CCc1c(C)nc2c(-c3ccccc3OC)c(C)[nH]n2c1=O	16.6
O=C1[C@@H]2[C@H](C(=O)N1Cc1ccco1)[C@H]1C=C[C@@H]2C1	9.41
CC(C)CN(/C=N/c1sc2c(c1C#N)CCCCC2)CC(C)C	16.3
CN1C/C(=N\S(=O)(=O)c2ccccc2)N(C)C1=O	13
NC(=O)COC(=O)c1ccccc1OCc1ccccc1Cl	8.38
O=C(CCS(=O)(=O)c1ccc(Br)s1)NCc1ccccc1	16.7
O=C(NCCCN1CCOCC1)NC12CC3CC(CC(C3)C1)C2	7.46
COc1ccc([C@@H]2CC=C(C(=O)O)[C@H](c3ccccc3F)N2S(=O)(=O)c2ccc(C)cc2)cc1OC	16

SMILES	hERG current change (%, negative = inhibition) at 1uM [%]
CCOc1ccc(OCCC(=O)OCC(=O)NC2CCCCC2)cc1	13.2
O=C(NC1CC1)C1=C[C@H](c2csc3ccccc23)C[C@H](OCc2ccc(CO)cc2)O1	8.98
O=C(COc1ccc(Br)cc1)c1ccc2c(c1)CCCC2	0.109
COCC(C)n1c(C)cc(C(=O)CSc2cc(C)c3ccccc3n2)c1C (centres unmarked)	12.7
COC(=O)C1=C(C)OC(N)=C(C#N)C1c1cccnc1 (centres unmarked)	11.5
Cn1cc(S(=O)(=O)N2CCc3ccccc32)cc1C(=O)Nc1ccc(Cl)cc1	10.6
Cc1cccc(C(=O)OCC(=O)N2CCCCCC2)c1O	9.23
O=S(=O)(c1ccc2c(c1)CCN2)N1CCCC1	4.9
O=C(Nc1ccc(N2CCN(c3ccc(C(F)(F)F)cn3)CC2)nc1)c1cccs1	13.4
COc1ccc(OCC(O)CN(CCO)CC(O)Cn2ccc3ccccc32)cc1 (centres unmarked)	9.66
CC1(C)CC2CC(C)(CN2C(=O)c2cc(-c3ccc(F)cc3)on2)C1 (centres unmarked)	11.5
CN(C)S(=O)(=O)c1ccc(C(=O)Nc2ccc(S(=O)(=O)NC3=NCCCCC3)cc2)cc1	-2.57
O=C(COC(=O)c1n[nH]c(=O)c2ccccc12)c1ccc(Cl)cc1	14.7
COC(=O)c1ccc(CNC(=O)COC(=O)c2ccccc2-c2ccccc2)cc1	-6.61
CN(C)S(=O)(=O)c1cccc(-c2nnc(-c3ccccc3)o2)c1	9.85
O=C(c1cc2cc(Br)cc(Br)c2oc1=O)N1CCOCC1	1.79
C=C(C)CSc1nc2nc(C)cc(C)n2n1	5.03
Cc1ccc(NS(=O)(=O)c2cccc(C(=O)N3CCN(c4ncccn4)CC3)c2)cc1	9.78
CCCCNC(=O)c1onc(CSc2ccccc2F)c1C(=O)O	14.7
CN(C)CCCNC1CS(=O)(=O)CC1O.Cl (centres unmarked)	7.14
O=C(O)c1cc2c(s1)-c1ccccc1CC2	-9.58
C=CCNC(=O)CSc1nc2ccccc2c(=O)n1CCc1ccc(OC)c(OC)c1	0.494
Cc1cc(CNC(=O)c2cccc([N+](=O)[O-])c2)c2ccccc2n1	5.45

SMILES	hERG current change (%, negative = inhibition) at 1uM [%]
COc1cccc(NC(=O)CN2CCN(C(=O)c3ccco3)CC2)c1	11.1
O=C(CN1CCOCC1)NNc1nc(-c2ccccc2)c2cc(Br)ccc2n1	7.75
Cc1ccc(S(=O)(=O)Nc2ccc3nc(N)sc3c2)cc1	-2.39
Cc1c(NC(=S)N/C(=N/S(=O)(=O)c2ccccc2)c2ccccc2)c(=O)n(-c2ccccc2)n1C	13.3
CCOc1ccc(-c2nnc(-c3cccs3)o2)cc1	12.9
Cn1c(Sc2ccc(C(=O)O)cc2[N+](=O)[O-])nnc1-c1ccccc1	-14.3
O=C(c1cccc(S(=O)(=O)N2CCOCC2)c1)N1CCOCC1	21.7
O=c1[nH]c(O)c(C=NC2CCCCC2)c(=O)[nH]1	12.3
COc1ccc(NS(=O)(=O)c2cccc(C(=O)Nc3cccc(C(=O)O)c3)c2)cc1	15.8
CCn1cc(C(=O)N2CCOCC2)c2ccccc21	7.17
COc1ccc(CNCc2c(C(=O)N(C)C)nc3ccc(Cl)cn23)c(OC)c1	4.86
Cc1cccc(C)c1NC1=NC(C)(C)N=C(N)N1	14.9
Cc1ccc(C2(O)CCN3CCCCC32)cc1 (centres unmarked)	14.3
CC(C)(C)NC(=O)CN(C(=O)Cn1nnc(-c2ccccc2F)n1)c1cccc2c1CCCC2	6.4
CC(=O)c1cccc(N2C(=NC(=O)C(C)C)SC3CS(=O)(=O)CC32)c1 (centres unmarked)	13.5
COC(=O)c1ccc(N2CCN(C(C)=O)CC2)c(NC(=O)COc2ccccc2C)c1	8.44
CC1CCCN(c2nc3c(c(=O)n(C)c(=O)n3C)n2CCSc2nc3ccccc3o2)C1 (centres unmarked)	10.5
COc1ccc(NC(=S)Nc2cccc(C)n2)cc1	2.71
COc1ccccc1NC(=O)c1ccccc1-c1nc(-c2ccccc2OC)no1	0.603
COc1ccc(Cl)cc1NC(=S)NNC(=O)CC(C)C	4.19
O=c1oc2ccccc2c2c1ncn2C1CCCCC1	-24.8
COc1ccc(CN(C(C)=O)c2ccccc2C(=O)O)cc1	4.21
CC(C)(C)c1ccc(Oc2ncccc2NC(=O)c2cccs2)cc1	11.1

SMILES	hERG current change (%, negative = inhibition) at 1uM [%]
CCC(c1nnnn1Cc1ccco1)N1CCN(C(=O)c2ccco2)CC1.Cl (centres unmarked)	-0.369
CN(c1ccccc1C(=O)O)S(C)(=O)=O	17.2
CC1=NNC(=O)C1CCC(=O)N/N=C/c1ccc(Cl)cc1 (centres unmarked)	21
Cc1c(Cl)cccc1NC(=O)Nc1cnccn1	15.3
O=C(Cc1ccsc1)NNC(=O)c1ccccc1Cl	7.87
O=C(NCCCc1ccccc1)Nc1cccc(Cl)c1	7.97
Clc1cc(Cl)cc(CSc2nnc(-c3sccc3-n3cccc3)o2)c1	4.3
CC(NC(=O)CN(C)CC(=O)Nc1ccc(F)c(F)c1F)c1ccccc1 (centres unmarked)	3.74
O=C1CC(/C=C/c2ccccn2)=Nc2ccccc2N1	2.14
CC1=C(C(N)=O)C(c2ccccc2[N+](=O)[O-])n2ncnc2N1 (centres unmarked)	3
CC(=O)c1ccc(NC(=O)c2ccccc2-c2ccccc2C(=O)O)cc1	17.5
CN(C)CCCN(Cc1ccccc1)C(=S)Nc1cccc(C(F)(F)F)c1	-7.56
CC(C)CCOc1ccc(C(=O)O)cc1	16
CCOC(CNC(=O)CN1C(=O)COc2ccc(S(=O)(=O)N3CC(C)CC(C)C3)cc21)OCC (centres unmarked)	12
CCOC(=O)CC1C(=O)NCCN1S(=O)(=O)c1cc(Cl)c(Cl)cc1Cl (centres unmarked)	-4.46
COC(=O)C(C)N(C(=O)c1ccc(C(=O)c2ccccc2)cc1)c1c(C)cccc1C (centres unmarked)	-15.7
O=C(C1CC1)N1CCN(c2nc3ccccc3s2)CC1	6.31
N#Cc1ccccc1Sc1ccccc1C(=O)OCC(=O)NC1CCS(=O)(=O)C1 (centres unmarked)	19.5
CC(C)c1ccc(OCC(=O)NNC(=O)c2cnccn2)cc1	13
CCN1CCN(S(=O)(=O)c2ccc(-c3cc(C)no3)s2)CC1	11.2
Cc1ccc(NC(=O)COC(=O)Cn2nc(C)c([N+](=O)[O-])c2C)c([N+](=O)[O-])c1	14.6
OCC(Cc1ccccc1)Nc1c2ccccc2nc2ccccc12 (centres unmarked)	-38.8
Cl.NCC12CC3CC(CC(O)(C3)C1)C2	10.1
